Measured values reported in the supplement of paper PMC10126150.
Values marked as one replicate rest on one cluster of the flow cell; about a third of the high ones do not repeat.
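Also: ATP exposure 15 min at 22 °C before imaging.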

What follows are sequences tested on ATP (assay: switch fluorescence ratio, 500 uM ATP over buffer (Cy3 cluster intensity, sum of 5 cycles each) (fold (ratio)); higher = stronger signal-on switching upon ATP binding; sequences stand for … in TCGTCGGCAGCGTCAGATGTGTATAAGAGACAGTTTTTTTTTTTTTTTTTTTTTTTTT…TC). Conditions: aptamer strand: ATP DNA aptamer (quencher-CACCTGGGGGAGTATTGCGGAGGAAGG + anchor), 100 nM annealed; ATP concentration: 500 uM; one replicate.
In short: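 The quencher-labelled ATP aptamer, at 100 nM, was annealed to Cy3-labelled switching-strand clusters on a modified Illumina MiSeq flow-cell. The clusters were imaged in selection buffer, then after 15 min with 500 uM ATP at 22 °C, and this buffer/ATP cycle ran five times with NaOH stripping and re-annealing between runs. Per-cluster fluorescence ratios, summed target-cycle over summed buffer-cycle Cy3 intensity, were averaged per switch-domain sequence. Clusters outside 100-1000 RFU were excluded.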
In the case of AGGTCCCTAG, the switch fluorescence ratio is reported as 0.994. AGGTCGGTGT was tested, and the switch fluorescence ratio was 1.01. Work on AGGTCGTAGA yielded a switch fluorescence ratio of 0.999. AGGTCTCAAG showed a switch fluorescence ratio of 0.957. For AGGTCTGAGG, the switch fluorescence ratio was 1.01. In the case of AGGTCTTCGT, the switch fluorescence ratio is reported as 0.989. AGGTCTTGTG was tested, and the switch fluorescence ratio was 0.995. With AGGTGAAAGC the switch fluorescence ratio was 0.965. AGGTGCAACT gave a switch fluorescence ratio of 1. With AGGTGCCTAC the switch fluorescence ratio was 1.03. AGGTGCGA gave a switch fluorescence ratio of 1.09. AGGTGGGTGT showed a switch fluorescence ratio of 0.994. In the case of AGGTGGTTAG, the switch fluorescence ratio is reported as 1.04. Work on AGGTGGTTGC yielded a switch fluorescence ratio of 0.979. Sequence AGGTGTCCCG has a switch fluorescence ratio of 0.948. In the case of AGGTGTCTAA, the switch fluorescence ratio is reported as 0.952. AGGTTCTTTC gave a switch fluorescence ratio of 0.977. For AGGTTGACGT, the switch fluorescence ratio was 1. For AGGTTTTCCA, the switch fluorescence ratio was 1.01. Sequence AGTAAAACGG has a switch fluorescence ratio of 1.03. With AGTAAAATCT the switch fluorescence ratio was 0.987. Work on AGTAAAGAAA yielded a switch fluorescence ratio of 1.01. Work on AGTAAAGATC yielded a switch fluorescence ratio of 0.965. Sequence AGTAAATTGA has a switch fluorescence ratio of 0.975. AGTAACGAAT showed a switch fluorescence ratio of 1.03. AGTAAGGCAG was tested, and the switch fluorescence ratio was 1.04. Work on AGTAAGGTCG yielded a switch fluorescence ratio of 0.958. For AGTAAGTTGT, the switch fluorescence ratio was 1.01. AGTAATGGAA was tested, and the switch fluorescence ratio was 1.01. Work on AGTAATGGCG yielded a switch fluorescence ratio of 0.976. AGTAATGTCC showed a switch fluorescence ratio of 1.02. AGTACAGGTA was tested, and the switch fluorescence ratio was 1.03. AGTACCCACC was tested, and the switch fluorescence ratio was 1.54. AGTACGAATT showed a switch fluorescence ratio of 1. With AGTACGAGAA the switch fluorescence ratio was 1.05. With AGTACGGCAT the switch fluorescence ratio was 1.05. With AGTACGTGGG the switch fluorescence ratio was 0.978. AGTAGATTGC showed a switch fluorescence ratio of 1.01. Work on AGTAGCCGTG yielded a switch fluorescence ratio of 0.946. For AGTAGCGGCG, the switch fluorescence ratio was 1.04. AGTAGCTCCG showed a switch fluorescence ratio of 1. With AGTAGGTTGG the switch fluorescence ratio was 1.01. Sequence AGTAGTCAGG has a switch fluorescence ratio of 1.01. For AGTATACCTA, the switch fluorescence ratio was 0.926. For AGTATAGTTA, the switch fluorescence ratio was 1.01. AGTATATCAG was tested, and the switch fluorescence ratio was 0.992. AGTATCAGTC was tested, and the switch fluorescence ratio was 0.955. For AGTATCGGTC, the switch fluorescence ratio was 0.982. Work on AGTATGCGC yielded a switch fluorescence ratio of 0.98. Work on AGTATGGGAA yielded a switch fluorescence ratio of 1.05. AGTATGTTAG gave a switch fluorescence ratio of 0.973. In the case of AGTATTAAG, the switch fluorescence ratio is reported as 0.958. AGTATTATCT showed a switch fluorescence ratio of 1.02. In the case of AGTATTATGA, the switch fluorescence ratio is reported as 1.02. With AGTATTCGTT the switch fluorescence ratio was 0.979. AGTATTTGCA was tested, and the switch fluorescence ratio was 0.947. AGTATTTGTT was tested, and the switch fluorescence ratio was 1.04. AGTCAATTGG gave a switch fluorescence ratio of 0.949. AGTCACTTAC gave a switch fluorescence ratio of 1.37. AGTCAGACTG was tested, and the switch fluorescence ratio was 0.948. AGTCAGGCTG gave a switch fluorescence ratio of 0.98. In the case of AGTCAGGGCA, the switch fluorescence ratio is reported as 0.983. Sequence AGTCAGGTTG has a switch fluorescence ratio of 0.986. AGTCATACGC was tested, and the switch fluorescence ratio was 1.1. AGTCATGCCC gave a switch fluorescence ratio of 1.24. AGTCATGCTT showed a switch fluorescence ratio of 1.08. AGTCCAATGG was tested, and the switch fluorescence ratio was 1.05. AGTCCCGTTG was tested, and the switch fluorescence ratio was 1.04. Work on AGTCCCTTGA yielded a switch fluorescence ratio of 0.993. AGTCCGGGTC gave a switch fluorescence ratio of 0.976. With AGTCCGTACA the switch fluorescence ratio was 1.02. With AGTCCGTCTC the switch fluorescence ratio was 0.972. With AGTCCGTGAT the switch fluorescence ratio was 1.73. Work on AGTCCTAGAG yielded a switch fluorescence ratio of 1. Sequence AGTCCTCTGA has a switch fluorescence ratio of 1.03. In the case of AGTCGCTTCA, the switch fluorescence ratio is reported as 0.979. For AGTCGCTTTC, the switch fluorescence ratio was 1.05. Sequence AGTCGGCGGT has a switch fluorescence ratio of 0.915. AGTCGGCTGG gave a switch fluorescence ratio of 0.953. For AGTCGGGTCC, the switch fluorescence ratio was 1.04. AGTCTAAGAT gave a switch fluorescence ratio of 0.992. Sequence AGTCTAGTTC has a switch fluorescence ratio of 0.99. Work on AGTCTCCAAT yielded a switch fluorescence ratio of 1.03. Sequence AGTCTCTCTT has a switch fluorescence ratio of 0.962. With AGTCTGAAAT the switch fluorescence ratio was 0.944. AGTCTGCGTA showed a switch fluorescence ratio of 1.01. AGTCTTAAAT gave a switch fluorescence ratio of 1.01. AGTCTTCG gave a switch fluorescence ratio of 1.09. In the case of AGTCTTGGCC, the switch fluorescence ratio is reported as 0.983. AGTCTTTATT was tested, and the switch fluorescence ratio was 0.941. AGTGAACGGA gave a switch fluorescence ratio of 1.01. With AGTGACGGCA the switch fluorescence ratio was 1.05. In the case of AGTGATC, the switch fluorescence ratio is reported as 0.982. With AGTGATCAT the switch fluorescence ratio was 1. Sequence AGTGATCGG has a switch fluorescence ratio of 1.03. AGTGATTC was tested, and the switch fluorescence ratio was 1.32. AGTGCCCCCT gave a switch fluorescence ratio of 1.02. For AGTGCTTAAT, the switch fluorescence ratio was 0.991. AGTGCTTCTG was tested, and the switch fluorescence ratio was 1.07. Work on AGTGGAGGCC yielded a switch fluorescence ratio of 1.03. For AGTGGATTAG, the switch fluorescence ratio was 0.969. In the case of AGTGGCACT, the switch fluorescence ratio is reported as 1.01. With AGTGGCATTG the switch fluorescence ratio was 0.992. Work on AGTGGCCTCC yielded a switch fluorescence ratio of 1.03. For AGTGGCGGAA, the switch fluorescence ratio was 0.998. In the case of AGTGGGCCCC, the switch fluorescence ratio is reported as 1.01. For AGTGGGCGCG, the switch fluorescence ratio was 1.03. In the case of AGTGGGGCCG, the switch fluorescence ratio is reported as 0.92. AGTGGGGGA gave a switch fluorescence ratio of 0.978. For AGTGGGTGGT, the switch fluorescence ratio was 0.984. For AGTGGGTTAA, the switch fluorescence ratio was 1.05. With AGTGGTCGTC the switch fluorescence ratio was 1.02. For AGTGGTTTTG, the switch fluorescence ratio was 0.965. In the case of AGTGTCACGG, the switch fluorescence ratio is reported as 0.932. For AGTGTCGCGG, the switch fluorescence ratio was 0.979. AGTGTGAGGA gave a switch fluorescence ratio of 1.01. With AGTGTTAGAT the switch fluorescence ratio was 0.979. Sequence AGTTAAAATT has a switch fluorescence ratio of 0.953. Sequence AGTTAAGAA has a switch fluorescence ratio of 0.975. AGTTAAGACG was tested, and the switch fluorescence ratio was 0.962. AGTTAATT was tested, and the switch fluorescence ratio was 0.94. Sequence AGTTACAGCA has a switch fluorescence ratio of 1.04. In the case of AGTTACTTTT, the switch fluorescence ratio is reported as 1.04. AGTTAGGTGC gave a switch fluorescence ratio of 1.19. Sequence AGTTATTCAT has a switch fluorescence ratio of 0.993. With AGTTCAATGC the switch fluorescence ratio was 1.67. In the case of AGTTCATTTA, the switch fluorescence ratio is reported as 1.02. For AGTTCCCATA, the switch fluorescence ratio was 0.968. Sequence AGTTCCGAAT has a switch fluorescence ratio of 1.03. AGTTCCTAGG showed a switch fluorescence ratio of 1.03. AGTTCGGAAG showed a switch fluorescence ratio of 1.01. AGTTCGGCTC showed a switch fluorescence ratio of 0.972. AGTTCGGGTA gave a switch fluorescence ratio of 1.02. AGTTCGGTAG gave a switch fluorescence ratio of 0.961. AGTTCTCATG gave a switch fluorescence ratio of 0.97. For AGTTCTGATC, the switch fluorescence ratio was 0.932. AGTTGACTCG was tested, and the switch fluorescence ratio was 0.981. For AGTTGAGGCG, the switch fluorescence ratio was 1.09. AGTTGGAAAT showed a switch fluorescence ratio of 0.99. AGTTGGACGG showed a switch fluorescence ratio of 0.99. AGTTGGCGGT showed a switch fluorescence ratio of 0.88. Work on AGTTGT yielded a switch fluorescence ratio of 1.04. AGTTGTACGG was tested, and the switch fluorescence ratio was 0.989. AGTTGTCCTT gave a switch fluorescence ratio of 0.986. Work on AGTTGTCGTT yielded a switch fluorescence ratio of 0.995. Work on AGTTGTTGTG yielded a switch fluorescence ratio of 0.958. In the case of AGTTTAGCAT, the switch fluorescence ratio is reported as 1.05. For AGTTTAGGGC, the switch fluorescence ratio was 1.01. In the case of AGTTTCCCAT, the switch fluorescence ratio is reported as 0.99. Work on ATAAAACC yielded a switch fluorescence ratio of 1.03. With ATAAAAGTTG the switch fluorescence ratio was 1.02. Sequence ATAAACACCT has a switch fluorescence ratio of 1.47. In the case of ATAAACTTG, the switch fluorescence ratio is reported as 1.06. Work on ATAAAGGGAA yielded a switch fluorescence ratio of 1.03. Work on ATAACACTGG yielded a switch fluorescence ratio of 1.07. Sequence ATAACAGCTG has a switch fluorescence ratio of 1.03. Work on ATAACCCACA yielded a switch fluorescence ratio of 1.41. For ATAACCCCTG, the switch fluorescence ratio was 1.05. ATAACCCTGA gave a switch fluorescence ratio of 1.05. For ATAACGAAGG, the switch fluorescence ratio was 1.05. ATAACGATGT showed a switch fluorescence ratio of 0.992. In the case of ATAACGCCAA, the switch fluorescence ratio is reported as 1.3. Work on ATAACGGAAC yielded a switch fluorescence ratio of 1.18. ATAACTATCC was tested, and the switch fluorescence ratio was 1.07. Sequence ATAACTGGT has a switch fluorescence ratio of 0.995. Work on ATAAGAATAA yielded a switch fluorescence ratio of 0.985. With ATAAGAGGGA the switch fluorescence ratio was 0.989. Work on ATAAGCCATA yielded a switch fluorescence ratio of 1.02. Sequence ATAAGCGAGC has a switch fluorescence ratio of 0.993. ATAAGCTAGA was tested, and the switch fluorescence ratio was 1.01. Sequence ATAAGGATTT has a switch fluorescence ratio of 1.02. In the case of ATAAGGCGGC, the switch fluorescence ratio is reported as 1.03. Sequence ATAAGGGACC has a switch fluorescence ratio of 1.05. For ATAAGGGCCC, the switch fluorescence ratio was 0.981. ATAAGTATAT gave a switch fluorescence ratio of 1.04. ATAAGTTTGC showed a switch fluorescence ratio of 0.922. For ATAATAACGG, the switch fluorescence ratio was 1.04. For ATAATAGGCT, the switch fluorescence ratio was 1.04. Sequence ATAATCATA has a switch fluorescence ratio of 1.02. With ATAATCATTG the switch fluorescence ratio was 1.01. Sequence ATAATCCATC has a switch fluorescence ratio of 0.977. ATAATCGGGG showed a switch fluorescence ratio of 0.981. In the case of ATAATGAACG, the switch fluorescence ratio is reported as 1.05. Sequence ATAATGCGCG has a switch fluorescence ratio of 0.959. Sequence ATAATGGTT has a switch fluorescence ratio of 1.02. ATAATGTCCC was tested, and the switch fluorescence ratio was 0.993. ATAATGTGTA showed a switch fluorescence ratio of 1.06. Sequence ATAATTGCGT has a switch fluorescence ratio of 0.994. With ATACAAAACC the switch fluorescence ratio was 1.03. Work on ATACAACCGG yielded a switch fluorescence ratio of 1.03. Sequence ATACAAGGT has a switch fluorescence ratio of 1.08. ATACAAGGTT showed a switch fluorescence ratio of 0.958. With ATACATGGT the switch fluorescence ratio was 0.951. For ATACCGAAAC, the switch fluorescence ratio was 1.15. ATACCGAGAT was tested, and the switch fluorescence ratio was 1.04. Sequence ATACCGGGTC has a switch fluorescence ratio of 1.02. ATACCGTCAT gave a switch fluorescence ratio of 1. Work on ATACCTTAGG yielded a switch fluorescence ratio of 1.06. ATACGATACT showed a switch fluorescence ratio of 1.39. Sequence ATACGGAATC has a switch fluorescence ratio of 2.4. In the case of ATACGTACGA, the switch fluorescence ratio is reported as 1.66.
